# Source: PubChem BioAssay AID1745845 (National Center for Advancing Translational Sciences (NCATS), 2022)
# About 2,600 (0.72%) of roughly 360,000 compounds were called active. This list was built around the results that the source calls inconclusive (neither active nor inactive); the mix of calls is not that of the screen. Calls follow the shape of the dose curve; as a rule, active = well fitted inhibition curve with a large enough effect; inconclusive = small, poorly fitted or top-dose-only effect; inactive = no such curve, though single readings can be large or run the other way. Where the call is inconclusive, the potency comes from a doubtful curve fit.
# Assay: Primary qHTS for Inhibitors of ATXN expression; also: nearly all actives have a fitted effect of over 55% in size
# Conditions: HEK-293 ATXN2-luciferase reporter, luminescence, 24 h; activity change, negative = inhibition: at 57 µM (top of the series)
# In short: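 qHTS (up to 57 uM final) was run with 24 h compound exposure of reporter cells at 37 °C. Each well was multiplexed: SteadyGlo luminescence measured ATXN2-luciferase expression after a fluorogenic Gly-Phe-AFC viability readout (25 uM final).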
# % is scaled to controls: 0 for no effect and ±100 for the full control effect; potency is read from the fitted curve at half-maximal effect; tags tell the direction and shape of the fitted curve.
Structure (SMILES),"activity change, negative = inhibition",Potency
CCOC(=O)C(=Cc1ccc(Br)cc1)C(=O)OCC,inconclusive: -97.2% [inhibitor],–
NC(CCc1ccccc1)c1csc(Nc2ccc(C(=O)c3ccccc3)cc2)n1 (centres undefined),–,"inconclusive: 31.6 µM [inhibitor, single point]"
COc1ccc(C(C)C)cc1S(=O)(=O)NCCc1c(C)[nH]c2c(Cl)cccc12,–,"inconclusive: 39.8 µM [inhibitor, single point]"
Cc1ccc2[nH]c3c(c2c1)CN(C(=O)CN1c2ccc(F)cc2CCC1C)CC3 (centres undefined),–,"inconclusive: 39.8 µM [inhibitor, partial curve, poor fit]"
C[C@H](NC(=O)OC(C)(C)C)c1nnc(SCc2ccc(Cl)cc2Cl)o1,inactive: 0%,–
Cc1ccc(NC(=O)CN(c2ccc(Cl)cc2)S(=O)(=O)c2cc([N+](=O)[O-])ccc2Cl)c(C)c1,–,"inconclusive: 39.8 µM [inhibitor, single point]"
CC(C)c1ccc(NC(=O)c2cc(S(=O)(=O)NCCc3ccccc3)ccc2F)cc1,–,"inconclusive: 39.8 µM [inhibitor, single point]"
COc1ccccc1C(=O)NNC(=O)C(=O)NC(C)C,inactive: 8.64%,–
Cc1cc(C(=O)Nc2cccc(C(=O)O)c2)oc1C,–,"inconclusive: 11.2 µM [inhibitor, partial curve, poor fit]"
COc1ccc2[nH]c(=O)cc(C(=O)O)c2c1,inactive: 0.885%,–
COc1ccccc1N1CCN(C2CC(=O)N(c3cccc(Cl)c3)C2=O)CC1 (centres undefined),inactive: -5.76%,–
CN(C)S(=O)(=O)N(CC(=O)NCCSCc1ccc(Cl)cc1Cl)c1ccccc1,–,"inconclusive: 31.6 µM [inhibitor, single point]"
COc1cccc(/C=N/Nc2nccnc2Cl)c1O,–,active: 5.62 µM
COc1cc(C(=O)Nc2ccc(Oc3ncnc4sc(-c5ccccc5)cc34)cc2)cc(OC)c1OC,–,"inconclusive: 31.6 µM [inhibitor, partial curve, poor fit]"
CN(Cc1ccccc1)S(=O)(=O)c1cccs1,inactive: 3.56%,–
COc1cc(CCNC(=O)c2ccccc2NC(=O)C2=C(C)OCCS2)cc(OC)c1OC,–,"inconclusive: 31.6 µM [inhibitor, single point]"
Cc1cc2c(=Cc3ccc(N(C)C)cc3)c3ccccc3n2[n+]1C,–,active: 10 µM
O=C(NCc1ccccc1)C1=C[C@@H](C2CCCCC2)C[C@@H](OCc2ccc(CO)cc2)O1,–,"inconclusive: 39.8 µM [inhibitor, single point]"
CCc1cnc(Nc2nc(C(N)Cc3ccc(F)cc3)cs2)nc1 (centres undefined),–,"inconclusive: 39.8 µM [inhibitor, single point]"
COc1ccc(N(CC(=O)Nc2cc(Cl)ccc2OC)S(=O)(=O)c2c(C)noc2C)cc1,–,"inconclusive: 10 µM [inhibitor, partial curve, poor fit]"
CC(C)(C)c1ccc(NC(=O)N2CCCN(c3c(Cl)cncc3Cl)CC2)cc1,–,"inconclusive: 28.2 µM [inhibitor, single point]"
NC(=O)c1nsc(C(=O)N(c2ccccc2F)C(C(=O)NCc2ccccc2)c2ccc(O)cc2)c1N (centres undefined),inactive: -14.8%,–

Structure (SMILES),"activity change, negative = inhibition",Potency
CCc1ccc(S(=O)(=O)c2cn(C)c3ccc(C)cc3c2=O)cc1,inactive: -5.78%,–
C=CCc1cccc(/C=N/NC(=O)CNc2ccccc2OC)c1O,–,"inconclusive: 12.6 µM [inhibitor, partial curve]"
CN(C)CCCNc1c2ccccc2nc2ccccc12,–,"inconclusive: 3.55 µM [inhibitor, full curve, poor fit]"
CNC(=S)Nc1cccc(-c2cnc3ccccc3n2)c1,inactive: 9.55%,–
Oc1ccc(C2CNCc3sccc32)cc1O (centres undefined),–,"inconclusive: 39.8 µM [inhibitor, single point]"
CCc1c(-c2ccccc2)nc2sc3c(c2c1N)CCCC3,–,"inconclusive: 37.7 µM [inhibitor, single point]"
CCn1c2ccccc2c2cc(CNCc3ccc(OC)cc3OC)ccc21,–,"inconclusive: 9.47 µM [inhibitor, partial curve, poor fit]"
Clc1ccccc1/C=N/NC1=Nc2cccc3cccc1c23,inactive: -34.8%,–
Cc1ccc(CNc2nc(NCc3ccccc3)nc3ccsc23)c(C)c1,–,"inconclusive: 17.8 µM [inhibitor, partial curve]"
C=CCC[C@@H](Cc1ccc(F)cc1)C(=O)OC[C@@H](NC(=O)[C@@H](CC=C)CC(=O)N(CCO)Cc1ccccc1)c1ccccc1,–,"inconclusive: 39.8 µM [inhibitor, single point]"
COc1ccc(NC(=O)CN2C(=O)C(=O)c3ccccc32)c(OC)c1,inactive: -12.7%,–
C/C(=N\Nc1cccc2cccnc12)c1ccc[nH]1,inactive: 102%,–
Cc1ccc(C(=O)COC(=O)c2ccc3c(c2)C(=O)N(c2cccc4ncccc24)C3=O)cc1,–,"inconclusive: 20 µM [inhibitor, partial curve, poor fit]"
NNc1ncnc2sc3c(c12)CCC3,–,"inconclusive: 33.6 µM [inhibitor, partial curve, poor fit]"
CCC(C(=O)O)C1CCC(C)C(C(C)C(O)C(C)C(=O)C(CC)C2OC3(C=CC(O)[C@@]4(CC[C@](C)(C5CC[C@@](O)(CC)C(C)O5)O4)O3)C(C)CC2C)O1 (some centres undefined),–,active: 7.69 µM
CCOC(=O)c1ccc(NC(=S)N(CCN2CCCCCC2)Cc2cccs2)cc1,inactive: -13%,–
O=C(Nc1ccc(Br)cc1)c1cc(S(=O)(=O)N2CCc3ccccc32)ccc1F,inactive: -19.9%,–
Cc1cnc(C=NNC(N)=S)c2cccc(N)c12,–,"inconclusive: 6.7 µM [inhibitor, full curve]"
CC(=O)N1CCCC(c2cc(C(=O)Nc3ccccc3)no2)C1 (centres undefined),–,"inconclusive: 3.55 µM [inhibitor, full curve]"
CCOc1ccc(/C=C2\SC(=S)N(CCCC(=O)NCCCN3CCOCC3)C2=O)cc1,–,active: 8.91 µM
COc1ccc(-n2c(C)cc(C(=O)COC(=O)c3ccc(O)cc3O)c2C)cc1,–,"inconclusive: 17.8 µM [inhibitor, single point]"
Cc1cc(Nc2cccc(Cl)c2)nc2ccc(NC(=O)Cc3c(F)cccc3Cl)cc12,–,"inconclusive: 14.1 µM [inhibitor, partial curve, poor fit]"
